Among all 310,000 compounds or so, about 14,000 (4.5%) showed an effect of 50% or more. Effects have a minus sign here. The list shows a part of the results.
These compounds were tested against human ether-à-go-go-related gene (hERG) potassium channel (human, UniProt Q12809) (assay: primary screen, population patch clamp on CHO cells stably expressing hERG).
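Note: peak tail current of the secondary pulse compared with the same well before compound.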

human ether-à-go-go-related gene (hERG) potassium channel, sequence (Q12809 whole entry, looked up): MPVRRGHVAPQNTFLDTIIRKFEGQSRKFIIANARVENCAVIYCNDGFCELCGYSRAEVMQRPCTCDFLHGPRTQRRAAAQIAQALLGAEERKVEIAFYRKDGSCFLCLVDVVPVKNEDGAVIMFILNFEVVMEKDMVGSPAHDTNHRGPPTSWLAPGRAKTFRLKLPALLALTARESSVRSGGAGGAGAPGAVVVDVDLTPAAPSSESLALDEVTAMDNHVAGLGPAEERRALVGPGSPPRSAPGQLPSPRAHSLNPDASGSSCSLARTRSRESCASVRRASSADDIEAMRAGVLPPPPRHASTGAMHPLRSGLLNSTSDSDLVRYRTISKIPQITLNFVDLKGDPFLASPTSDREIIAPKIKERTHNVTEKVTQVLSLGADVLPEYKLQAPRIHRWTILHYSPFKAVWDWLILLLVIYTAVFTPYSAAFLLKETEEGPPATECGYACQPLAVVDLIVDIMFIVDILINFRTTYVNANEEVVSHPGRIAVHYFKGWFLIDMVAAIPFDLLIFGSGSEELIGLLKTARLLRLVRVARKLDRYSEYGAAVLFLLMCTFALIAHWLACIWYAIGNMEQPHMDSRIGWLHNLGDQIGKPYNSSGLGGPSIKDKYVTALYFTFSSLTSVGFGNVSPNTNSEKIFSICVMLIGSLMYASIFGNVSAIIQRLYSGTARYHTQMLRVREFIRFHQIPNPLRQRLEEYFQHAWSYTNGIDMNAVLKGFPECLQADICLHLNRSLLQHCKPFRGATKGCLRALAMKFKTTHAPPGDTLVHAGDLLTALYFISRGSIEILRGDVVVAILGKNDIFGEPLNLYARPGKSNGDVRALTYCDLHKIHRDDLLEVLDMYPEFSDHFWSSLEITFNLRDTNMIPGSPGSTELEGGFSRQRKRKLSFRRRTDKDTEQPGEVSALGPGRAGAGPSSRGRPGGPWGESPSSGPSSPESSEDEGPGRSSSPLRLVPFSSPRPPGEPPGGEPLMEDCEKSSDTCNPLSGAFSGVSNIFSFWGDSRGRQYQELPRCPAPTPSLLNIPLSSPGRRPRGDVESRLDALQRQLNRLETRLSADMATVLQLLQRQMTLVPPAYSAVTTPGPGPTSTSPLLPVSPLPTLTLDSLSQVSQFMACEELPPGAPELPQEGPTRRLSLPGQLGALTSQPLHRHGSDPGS

| SMILES | hERG current change (%, negative = inhibition) at 10uM |
| --- | --- |
| O=C(CS(=O)(=O)c1ccccc1)Nc1nccs1 | 17.9% |
| O=S(=O)(NC1CCCCC1)OCC(Cl)(Cl)Cl | -28.1% |
| O=S1(=O)CC(O)C(Nc2ccc(Cl)cc2)C1 (centres unmarked) | 7.96% |
| O=C(CSc1ncnc2c1nnn2Cc1ccccc1)NC1CCCC1 | 10.4% |
| C=CCNC1=C(Cl)C(=O)N(c2ccccc2Cl)C1=O | -14.8% |
| O=C(Cn1ncn2c(cc3cc(F)ccc32)c1=O)N1CCC2(CC1)OCCO2 | 15.3% |
| O=C(COS(=O)c1ccccc1)Nc1cc(Cl)ccc1N1CCOCC1 (centres unmarked) | -37.3% |
| Cc1ccc(C(=O)CN2C(=O)C(=O)N(Cc3ccccc3)C2=O)cc1 | 10.2% |
| Cc1ccccc1Cn1cc(NC(=O)c2cc(-c3cccs3)on2)cn1 | -11.9% |
| COc1cc(OC)c(OC)cc1/C=C1\Oc2cc(OCC(=O)N3Cc4ccccc4C[C@H]3C(=O)O)ccc2C1=O | 4.38% |
| Nc1nnc(CC(=O)N/N=C\c2cc([N+](=O)[O-])ccc2O)s1 | 26.3% |
| CCN(c1ccccc1)S(=O)(=O)c1ccc(Oc2ccc(C(C)=O)cc2OC)nc1 | -26.2% |
| Cc1ccc2nc(SCC(=O)Nc3ccc4sc(C)nc4c3)c(C#N)cc2c1 | 8.11% |
| CCCCN(CCCC)CCCNC(=O)C1CC(c2ccc(C(F)(F)F)cc2)=NO1 (centres unmarked) | -72.3% |
| O=C(CN1C(=O)NC2(CCCCC2)C1=O)N1CCN(S(=O)(=O)c2ccc(Cl)s2)CC1 | 4.79% |
| COc1cccc(Oc2ccc(S(=O)(=O)N3CCCC3)cc2[N+](=O)[O-])c1 | -57.1% |
| O=C(N1CCCCC1)N1CCN(S(=O)(=O)c2ccc(Cl)cc2)CC1 | -39.3% |
| CCOC(=O)C1=C(C)N=c2s/c(=C/c3cccc([N+](=O)[O-])c3O)c(=O)n2C1c1cc(OC)c(OC)c(OC)c1 (centres unmarked) | -13.2% |
| Cc1nc(SCc2ccc([N+](=O)[O-])cc2)nc2ccccc12 | 0.233% |

| SMILES | hERG current change (%, negative = inhibition) at 10uM |
| --- | --- |
| CCCCN(C(=O)c1ccc(-c2ccc([N+](=O)[O-])cc2)o1)c1c(N)n(CC(C)C)c(=O)[nH]c1=O | -19.3% |
| CCOCC(=O)Nc1cc(OC)c(Cl)cc1OC | 8.17% |
| Cc1cc(C)n(-c2ncnc3c2oc2ccccc23)n1 | -10% |
| CC1CN(C(=O)CSc2nnc(NC(=O)NC(C)(C)C)s2)CC(C)O1 (centres unmarked) | 19% |
| Cc1cccc[n+]1CC(=O)Nc1ccc([N+](=O)[O-])cc1Cl.[Cl-] | 18.4% |
| COCc1ccc(C(=O)N2CCCC(C(=O)c3ccc(Cl)cc3C)C2)o1 (centres unmarked) | -34.2% |
| COc1cc(CCC(=O)OCC(=O)NC(=O)c2ccc(Cl)cc2)cc(OC)c1OC | 13.3% |
| O=C(NCC1CCCO1)C1CCN(c2ccc(S(=O)(=O)N3CCCC3)cc2)CC1 (centres unmarked) | -4.69% |
| COc1ccc(C)cc1S(=O)(=O)N(C)CC(=O)NC1CCCC1 | 3.63% |
| COCCN(CCOC)C(=S)Nc1cc(S(=O)(=O)N(C)C)ccc1C | 0.217% |
| O=[N+]([O-])c1nn(-c2ccccc2)[n+]([O-])c1N1CCN(c2ccccc2)CC1 | -0.32% |
| Cc1ccc(S(=O)(=O)NC(=O)Nc2ccc(F)cc2)cc1 | 2.85% |
| CCOc1ccc(C(=O)NCC(C)C)cc1 | -3.67% |
| Cc1ccc(S(=O)(=O)N2CCN=C2SCc2c(F)cccc2Cl)cc1 | 10.4% |
| O=C(CCCCl)Oc1ccc2cc(-c3ccc4ccccc4n3)c(=O)oc2c1 | 4.58% |
| CC(C)(C)NC(=O)CN1CCCN(C(=O)c2cccc(S(=O)(=O)N3CCc4ccccc43)c2)CC1 | -7.51% |
| CCOC(=O)N1CCC(NC(=O)c2ccc3c(=O)n4c(nc3c2)CCCC4)CC1 | 12% |
| CCCCC(=O)Nc1ccc2c(c1)nc1n2CCOC1 | 15.6% |
| Cn1c(N)c(C(=O)CNC2CCCCC2)c(=O)n(C)c1=O | 5.61% |

| SMILES | hERG current change (%, negative = inhibition) at 10uM |
| --- | --- |
| CCOC(=O)CC1=CSC2=NS(=O)(=O)CCN12 | 8.26% |
| COc1cc(NC(=O)Cn2c(=O)n(CC3CCCO3)c(=O)c3ccccc32)cc(OC)c1 (centres unmarked) | 3.1% |
| Cc1ccccc1-c1noc(-c2ccccc2C(=O)O)n1 | -11.5% |
| Cn1c(=O)[nH]c(=O)c2[nH]c(NCCCN3CCOCC3)nc21 | 17.2% |
| CCOC(=O)CNC(=O)Nc1cccc(Cl)c1C | 16.9% |
| COc1ccccc1OCC(=O)c1[nH]c(C)c(C(C)=O)c1C | -2.63% |
| CCC/C(=N\NC(=O)CCC(=O)NCc1ccccc1)c1ccccc1 | 17.9% |
| COc1ccc(-c2nc3c(c(=O)c4ccccc4n3C)c(=O)n2Cc2ccccc2)cc1 | 9.65% |
| COc1ccc(Cc2nnc(SCC(=O)NC(C)c3ccccc3)o2)cc1 (centres unmarked) | -8.86% |
| CC(=O)c1c(C)[nH]c(C(=O)Nc2cc(S(=O)(=O)N(C)C)ccc2C)c1C | 15.5% |
| O=C(CN(C(=O)c1csnn1)c1ccc2c(c1)OCCO2)NCc1ccc(F)cc1 | -3.9% |
| CC1=CC(=O)C=C(C)C1=NOC(=O)c1cccc([N+](=O)[O-])c1 | 9.59% |
| CCc1nn(C(CC)C(=O)NCCc2ccc(OC)cc2OC)c(=O)c2cc3occc3n12 (centres unmarked) | -25.6% |
| S=c1[nH]nc2c3c4c(sc3ncn12)CCCC4 | 18.4% |
| CCOc1ccc(OCc2ccc(C(=O)N3CCc4ccccc4C3)o2)cc1 | -10.4% |
| CCOC(=O)C1=C(C)NC(C)=C(C(=O)OCC)C1c1sccc1C | 1.39% |
| FC(F)C(F)(F)c1cc(-c2ccc(Cl)cc2)n[nH]1 | 26.5% |
| O=C(CON=C1c2ccccc2-c2ccccc21)NC12CC3CC(CC(C3)C1)C2 | -7.23% |

From PMC4336329 (PLoS ONE, 2015)
